# The list shows a part of the results.
# B1: diCBM40 CPF071 (Clostridium perfringens) (protein)
# chain: MAHHHHHHVGTGSNDDDDKSPDPMLSSLGEYKDINLESSNASNITYDLEKYKNLDEGTIVVRFNSKDSKIQSLLGISNSKTKNGYFNFYVTNSRVGFELRNQKNEGNTQNGTENLVHMYKDVALNDGDNTVALKIEKNKGYKLFLNGKMIKEVKDTNTKFLNNIENLDSAFIGKTNRYGQSNEYNFKGNIGFMNIYNEPLGDDYLLSKTGETKALNGSELGSGSGLSSLGEYKDINLESSNASNITYDLEKYKNLDEGTIVVRFNSKDSKIQSLLGISNSKTKNGYFNFYVTNSRVGFELRNQKNEGNTQNGTENLVHMYKDVALNDGDNTVALKIEKNKGYKLFLNGKMIKEVKDTNTKFLNNIENLDSAFIGKTNRYGQSNEYNFKGNIGFMNIYNEPLGDDYLLSKTGETK
# Columns and labels:
# Test in all cases: glycan array binding signal (z-score within array); higher = stronger binding
# Settings in all cases: glycan notation: IUPAC condensed, linker removed
# [1] = target: Fuc(a1-3)[Gal3S(b1-4)]GlcNAc6S
# Outline: (§1)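 Columns mapping to the same glycan were averaged after glycan names were converted to IUPAC-condensed notation. The data come from 3228 arrays in the Consortium for Functional Glycomics database, limited to those with an available protein sequence. Binding is reported as a within-array Z-score averaged across arrays of one protein sequence and across linkers.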
# [2] = target: Fuc(a1-3)[GalNAc(b1-4)]GlcNAc
# Outline: as §1
# [3] = target: Fuc(a1-3)[GalNAc(b1-4)]GlcNAc6S
# Outline: as §1
# Fuc(a1-4)GlcNAc = target: Fuc(a1-4)GlcNAc
# Outline: as §1
# Fuc(b1-3)GlcNAc = target: Fuc(b1-3)GlcNAc
# Outline: as §1
# Gal(a1-2)Gal = target: Gal(a1-2)Gal
# Outline: as §1
# Gal(a1-3)Gal = target: Gal(a1-3)Gal
# Outline: as §1
# Gal(a1-3)Gal(b1-3)GlcNAc = target: Gal(a1-3)Gal(b1-3)GlcNAc
# Outline: as §1
# [4] = target: Gal(a1-3)Gal(b1-3)GlcNAc(b1-2)Man
# Outline: as §1
# [5] = target: Gal(a1-3)Gal(b1-3)GlcNAc(b1-2)Man(a1-3)[Gal(a1-3)Gal(b1-3)GlcNAc(b1-2)Man(a1-6)]Man(b1-4)GlcNAc(b1-4)GlcNAc
# Outline: as §1
# [6] = target: Gal(a1-3)Gal(b1-3)GlcNAc(b1-3)GalNAc
# Outline: as §1
# [7] = target: Gal(a1-3)Gal(b1-3)GlcNAc(b1-6)GalNAc
# Outline: as §1
# [8] = target: Gal(a1-3)Gal(b1-3)[Fuc(a1-4)]GlcNAc(b1-2)Man(a1-3)[Gal(a1-3)Gal(b1-3)[Fuc(a1-4)]GlcNAc(b1-2)Man(a1-6)]Man(b1-4)GlcNAc(b1-4)GlcNAc
# Outline: as §1
# Gal(a1-3)Gal(b1-4)Glc = target: Gal(a1-3)Gal(b1-4)Glc
# Outline: as §1
# Gal(a1-3)Gal(b1-4)GlcNAc = target: Gal(a1-3)Gal(b1-4)GlcNAc
# Outline: as §1
# [9] = target: Gal(a1-3)Gal(b1-4)GlcNAc(b1-2)Man
# Outline: as §1
# [10] = target: Gal(a1-3)Gal(b1-4)GlcNAc(b1-2)Man(a1-3)[Gal(a1-3)Gal(b1-4)GlcNAc(b1-2)Man(a1-6)]Man(b1-4)GlcNAc(b1-4)GlcNAc
# Outline: as §1
# [11] = target: Gal(a1-3)Gal(b1-4)GlcNAc(b1-3)GalNAc
# Outline: as §1
# [12] = target: Gal(a1-3)Gal(b1-4)GlcNAc(b1-6)GalNAc
# Outline: as §1
# [13] = target: Gal(a1-3)Gal(b1-4)[Fuc(a1-3)]GlcNAc
# Outline: as §1
# [14] = target: Gal(a1-3)Gal(b1-4)[Fuc(a1-3)]GlcNAc(b1-2)Man(a1-3)[Gal(a1-3)Gal(b1-4)[Fuc(a1-3)]GlcNAc(b1-2)Man(a1-6)]Man(b1-4)GlcNAc(b1-4)GlcNAc
# Outline: as §1
# Gal(a1-3)GalNAc = target: Gal(a1-3)GalNAc
# Outline: as §1
# [15] = target: Gal(a1-3)[Gal(a1-4)]Gal(b1-4)GlcNAc
# Outline: as §1
# [16] = target: Gal(a1-4)Gal(b1-3)GlcNAc(b1-2)Man(a1-3)[Gal(a1-4)Gal(b1-3)GlcNAc(b1-2)Man(a1-6)]Man(b1-4)GlcNAc(b1-4)GlcNAc
# Outline: as §1
# Gal(a1-4)Gal(b1-4)Glc = target: Gal(a1-4)Gal(b1-4)Glc
# Outline: as §1
# Gal(a1-4)Gal(b1-4)GlcNAc = target: Gal(a1-4)Gal(b1-4)GlcNAc
# Outline: as §1
# [17] = target: Gal(a1-4)Gal(b1-4)GlcNAc(b1-2)Man(a1-3)[Gal(a1-4)Gal(b1-4)GlcNAc(b1-2)Man(a1-6)]Man(b1-4)GlcNAc(b1-4)GlcNAc
# Outline: as §1
# [18] = target: Gal(a1-4)Gal(b1-4)GlcNAc(b1-3)Gal(b1-4)Glc
# Outline: as §1
# Gal(a1-4)GlcNAc = target: Gal(a1-4)GlcNAc
# Outline: as §1
# Gal(a1-6)Glc = target: Gal(a1-6)Glc
# Outline: as §1
# Gal(b1-2)Gal = target: Gal(b1-2)Gal
# Outline: as §1
# Gal(b1-3)Gal = target: Gal(b1-3)Gal
# Outline: as §1
# Gal(b1-3)Gal(b1-4)GlcNAc = target: Gal(b1-3)Gal(b1-4)GlcNAc
# Outline: as §1
# Gal(b1-3)GalNAc = target: Gal(b1-3)GalNAc
# Outline: as §1
# [19] = target: Gal(b1-3)GalNAc(a1-3)[Fuc(a1-2)]Gal(b1-4)Glc
# Outline: as §1
# [20] = target: Gal(b1-3)GalNAc(a1-3)[Fuc(a1-2)]Gal(b1-4)GlcNAc
# Outline: as §1
# Gal(b1-3)GalNAc(b1-3)Gal = target: Gal(b1-3)GalNAc(b1-3)Gal
# Outline: as §1
binder,measurement,setting,value
B1,glycan array binding signal (z-score),[1],-0.332
same,glycan array binding signal (z-score),[2],-0.303
same,glycan array binding signal (z-score),[3],-0.31
same,glycan array binding signal (z-score),Fuc(a1-4)GlcNAc,0.337
same,glycan array binding signal (z-score),Fuc(b1-3)GlcNAc,-0.339
same,glycan array binding signal (z-score),Gal(a1-2)Gal,-0.331
same,glycan array binding signal (z-score),Gal(a1-3)Gal,0.026
same,glycan array binding signal (z-score),Gal(a1-3)Gal(b1-3)GlcNAc,-0.198
same,glycan array binding signal (z-score),[4],-0.119
same,glycan array binding signal (z-score),[5],0.337
same,glycan array binding signal (z-score),[6],-0.325
same,glycan array binding signal (z-score),[7],-0.342
same,glycan array binding signal (z-score),[8],0.823
same,glycan array binding signal (z-score),Gal(a1-3)Gal(b1-4)Glc,-0.245
same,glycan array binding signal (z-score),Gal(a1-3)Gal(b1-4)GlcNAc,-0.217
same,glycan array binding signal (z-score),[9],-0.323
same,glycan array binding signal (z-score),[10],-0.182
same,glycan array binding signal (z-score),[11],-0.317
same,glycan array binding signal (z-score),[12],-0.344
same,glycan array binding signal (z-score),[13],-0.136
same,glycan array binding signal (z-score),[14],-0.329
same,glycan array binding signal (z-score),Gal(a1-3)GalNAc,-0.324
same,glycan array binding signal (z-score),[15],-0.317
same,glycan array binding signal (z-score),[16],-0.185
same,glycan array binding signal (z-score),Gal(a1-4)Gal(b1-4)Glc,-0.292
same,glycan array binding signal (z-score),Gal(a1-4)Gal(b1-4)GlcNAc,-0.309
same,glycan array binding signal (z-score),[17],-0.339
same,glycan array binding signal (z-score),[18],-0.311
same,glycan array binding signal (z-score),Gal(a1-4)GlcNAc,-0.307
same,glycan array binding signal (z-score),Gal(a1-6)Glc,-0.349
same,glycan array binding signal (z-score),Gal(b1-2)Gal,-0.348
same,glycan array binding signal (z-score),Gal(b1-3)Gal,-0.341
same,glycan array binding signal (z-score),Gal(b1-3)Gal(b1-4)GlcNAc,-0.128
same,glycan array binding signal (z-score),Gal(b1-3)GalNAc,-0.294
same,glycan array binding signal (z-score),[19],-0.327
same,glycan array binding signal (z-score),[20],-0.308
same,glycan array binding signal (z-score),Gal(b1-3)GalNAc(b1-3)Gal,-0.318

# Reference: the supplement of paper PMC8728848
